Data as given in article PMC10726135.
The list shows a part of the results. At the low end of the ranking, values are background and their order means little. The protein was read in a cell extract, so binding may be indirect.

Target: T1, HNF4alpha2 (COS-7 nuclear extract) (UniProt P41235)
T1 sequence: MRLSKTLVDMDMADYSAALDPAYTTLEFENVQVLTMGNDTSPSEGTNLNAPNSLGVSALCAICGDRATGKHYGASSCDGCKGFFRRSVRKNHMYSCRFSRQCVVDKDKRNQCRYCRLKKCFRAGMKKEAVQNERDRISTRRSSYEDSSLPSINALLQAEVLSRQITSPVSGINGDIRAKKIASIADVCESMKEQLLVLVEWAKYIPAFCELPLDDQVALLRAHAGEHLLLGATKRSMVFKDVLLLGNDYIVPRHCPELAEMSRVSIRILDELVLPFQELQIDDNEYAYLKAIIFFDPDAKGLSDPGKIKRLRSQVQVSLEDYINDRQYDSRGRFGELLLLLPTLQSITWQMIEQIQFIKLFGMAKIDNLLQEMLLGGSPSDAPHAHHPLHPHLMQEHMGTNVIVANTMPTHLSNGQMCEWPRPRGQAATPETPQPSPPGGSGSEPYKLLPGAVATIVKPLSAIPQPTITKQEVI
Experiment: protein-binding microarray
Conditions: COS-7 nuclear extract on double-stranded Agilent 4x180k PBM; binding buffer, salt, pH and temperature not given; high values mean tight binding; double strand, one strand shown; sequences stand for … in …GCCTAGGGAGATTAGAGTATCGGTCGA

Row | Sequence | binding signal (log2 normalized intensity)
1 | TCCCTCACTGGAGGTTGAATTCCAAAGGTT | 3.42
2 | CTGGGACGTGGCTCAAGATTACAGGTGATC | 1.08
3 | GGTAGTGGACTCTAAGGCAAAACACCCCTT | 2.22
4 | GGACTAAGAATTGCTCAACCTGGACCTCAT | 1.14
5 | CATGAAGCTTCCCCTTTAACCAATATTAGC | 0.498
6 | TGAACTACACAGATTCTGCAAACCTATTAA | -1.15
7 | GGGCCGGTACAAAAGGCCAAAGCCAGGGGA | -1.1
8 | CTTGCCGCATTCCCAGCATTCCAAGTGAGT | -1.08
9 | TTAGTTCTGCAAACACCCCTCCCCCACACA | 5.55
10 | CCCAGCTTTCATCTCGGCTGGCTACTGCTC | -0.8
11 | GAAACTCACATACTGTGGACATAAAAAGAT | -0.728
12 | TCCCACTAGGTGGCGCTGTTGACCTTGAAA | 3.09
13 | ATCTCTGCTCATAATGCCAGGCAGGAAGGA | -1.07
14 | AGACCTCCCCCAACTTACTTAGTGGCTCCT | 2.37
15 | ATTATGAACTAATTTGTCTTTTCTCCCCCG | 4.3
16 | GGCCACTCCCTGGGCAGTGCAGTATGCGCT | -1.15
17 | AGGTGAACCAGGGTGCAATTCGCATTTCTG | -1.08
18 | AGGGAATGTAAGGCACTTTATCTAGATAAG | -0.692
19 | GGAGCATGGGGGATGGGGCCTGGGAGATAA | -1.11
20 | TTATCACTTTGTAATGTCCCTCTTTATCTC | 1.65
21 | TCGCGAATCTGGCTAATGCATGTCCCTCCT | 0.0982
22 | TTAATTTAGCACTTAGTTCCCCAAATATTC | 1.5
23 | TCACTGCTCTGGCCACTCCCTGGGCAGTGC | -1.05
24 | GGTGAGAGGGCTCTGTCTGCTGGGCCTTCA | -1.1
25 | GGCTCAGGTTGCTGCCAGAGGGTGGCAGCA | -1.07

Row | Sequence | binding signal (log2 normalized intensity)
26 | CCAGTTCTGTGTACAAAGCCCCATATTCAT | 1.96
27 | ACAAAAACTGTTTCTATGTGACCTTCACCC | 5.26
28 | CTCAAGGCAAGTTGCTTCCACCTATGAGTC | -0.669
29 | CGACCTGCTGGGCTGCATTCCCAGATGGTT | -1.13
30 | CTGGGAACAAGTTCTGCAGACTCCCTAGAA | -0.99
31 | GGCTAGATTGCAACCAAGTCCATCTGTATT | 0.676
32 | GGCCTACTTAGTCCAGGTTTAGCAAGAATA | -1.18
33 | TGGAGATAATAGGAGATAATAATACTTATC | -1.05
34 | TCAGATTCCTCACTGATAAAACTGGAATAA | 0.496
35 | GCCTGCCTGCCAACTCCACGCCCGCCGCCA | -0.921
36 | AGGCCTGGAACCTGTCTGACAGGATGAATT | -0.627
37 | TTATCTTCTCCCCTGCCAAATCATGGAGGT | 1.43
38 | AAATGTCCTGAGTGATTGTAGTGTCATTGT | 2.45
39 | TACTTTGGACTGGGGACCTGGTCTGAGATA | 1.75
40 | CGCGCGGGAGGAGGAGACAAAGGCCGCGCC | 2.07
41 | TGACTGTGATACCAGGGGTCATTTTATGGG | 2.84
42 | AAGGAGGTGAACTTTGAGACTATCCTTGGA | 2.93
43 | GAGTCTTAGAGTCCAGACACAAAGAGACAA | -1.13
44 | TTATTTAGTAGTGGCAAGAGAAGCCCCATG | -0.71
45 | AGTGTGCACTTTGCACCTGGGCTGGAAAGG | 2.89
46 | GGGGAAACAAAATAATAGTTGACCTTTGAG | 5.9
47 | CTGTTTTGGATTTTAAAAGCCCTCAAATAC | 0.578
48 | ACCACAGCGGGGCCTCTGTGTGGGGCTGAT | -0.278
49 | AAAGCCATGAAGCAATTCTGAGCCCAACCT | -1.17
50 | ATCATCTCTTGTCTGGAATACCTTCTGCAT | 0.502

Row | Sequence | binding signal (log2 normalized intensity)
51 | TCTCCATTCAGCATTGCTTGGGAGCAGTCC | -0.474
52 | TGAGCAGGATTATAGTTTATCTACCTTTGT | 1.29
53 | AGTGGCCCAGTGTCTCTGGGCGCTGGGAAG | -0.864
54 | TGTTTGTTTCACTAATGTAGATTTTCTCTG | -0.0729
55 | AACTGACTGCATTCCCTTTCTCCTCCCCTC | 3.07
56 | TCTGTTGTCTCTGTAAATAAATGTCATTTA | 1.65
57 | CTGCCTGTGCTGTGGCTGCCAAGACACAGA | -1.14
58 | GCGAGTCCAGCCAGGTTGCATCAGCTGGGC | -1.11
59 | CAGCAGTAACCCCCCAGGAGCGAGTCAAGG | 2.92
60 | CTCTAGACTCCAGCTAAAGCCTGCTCGTTG | -1.14
61 | ACACCTGCCTTTGATCAGGGACCTTTGTTC | 4.59
62 | GGCAGGAGTGGGAGGCTGGGGCCTCCTGGC | -1.12
63 | CCGGAGCGGCGGACCCGGCGGACCGGGGGG | -1.1
64 | GGCCGTAAAGATAAGAACGCTAGACACTGG | -1.04
65 | CTAGCCTCGAGATAACCCACCTCCGGCCGG | -1.16
66 | GAGTCATAAAGGGCAGGAACATCAGACACA | -0.999
67 | TAGACTTTGGACCTGGCCTGCGGGGTCAGG | 5.39
68 | AAATGGAGCAGCTCTGTATTGAGATAAGCA | -1.04
69 | TACTGCAACCTGTTTTACCAGGAAGGGCTT | -1.02
70 | AATTCCAGCTTCCCCACTTATTACCGGTGT | 1.24
71 | TGGACTCTGCAAGGAAGGTGGGGGCCGCCC | 0.449
72 | ACAGCAACTAGCAACTTGGACCTTGATAGG | 3.87
73 | AGCAGATGGCCAGCCTTTGGACTTTGAACT | 10.7
74 | CATTGACTTTGCCTTTTGGCTAAAGTCCAA | 4.16
75 | GTCCAAAGGTCAGCAAGCCTGGAGTTCTGA | 4.22

Row | Sequence | binding signal (log2 normalized intensity)
76 | AGGGAGGCTTTTGCAGTCACTCTCTAGAAT | -0.882
77 | ATTGAATGTGTTACACCTGTGTGTACTGGG | 1.84
78 | CTCCAAAGGCTGTTTGCACCGTGTGCTTTG | 0.866
79 | GGCTAGGGCAAAGATCAAACATACAGTAAA | 1.77
80 | ATATAAGGTCCAACTGACATCTGGAAATGT | 0.608
81 | TCTGGGGCCCTCTTCTGCATTCTTCTTCTA | -1.1
82 | GATCTCCTGCACCTGAACTTTGCTCTGTGA | 4.56
83 | GTCCCAGTAGATAACTTCAAGGAGCTCGGC | -0.627
84 | CTTTGCCCTTTGTTTACATAGCTCCTTCAT | 1.69
85 | ACATTATCTAACAAGAAGTCTGAAGGCAGG | -0.511
86 | GGTTAGCAAGGGCCCCCACTAGAGAGACCG | 0.957
87 | GAAAGCCAGCAGGGGCTGCTGGGAGTTGTA | 1.12
88 | TGCCCAGCTTGAATCACTCACTGACCTCTT | 3.98
89 | ATCCTTTACCTCCACCTCCAAGGTCCCCAA | 3.52
90 | ACTCCTCGTGGCCCCTGGGTCGTTGGTGCT | 1.22
91 | CCGGCATGATCTTGCTCTCTTGTGCTCATG | 0.804
92 | CCTCTGCATTTGCTCCCTGACTTGGTTTAC | 1.67
93 | ATTTTCTAGGAGAATCACTAGGACATATAT | -1.11
94 | GCAGCTTGTACCCTTCTTTCCACCCTGTTG | 1.78
95 | AACACATACCTTAAATAAGAGACTCAGGCC | -0.691
96 | TGTGCACAGTCCACAGAAACGCAGTCCTGA | -1.19
97 | TCTTGTGGTAATCTCTTTTGTGTTAGAGGG | 1.39
98 | CCTCTGGACAAGGGAAGCGTCAATGCCCCA | 2.01
99 | AGCATGGCCCTTTGCAGCCCGAGCTGCTGG | -1.13
100 | AGAGAGAGGGAGACAACCTTTGGTCACTTG | 3.67

Row | Sequence | binding signal (log2 normalized intensity)
101 | GAGAGCATTCTGCTGCTCTTTAATCCTAAT | -1.16
102 | TGGAGATAACACAACCCCTACTGTACCCTA | 1.49
103 | TCACCTGGCAAGGCAGCCTCAGCCACACGC | -1.18
104 | AGCTGTGCCCCAGTCCTTCAGTCCTTCCCC | 2.79
105 | CTCTCTGTGTCACATACACCTGCGTGTACT | 1.55
106 | AGAACTAGCCAGACCTGTTCCTCTGCCCCT | 2.4
107 | GCATGGAATGCAGGAGATCCAGTAGGGCGT | -1.16
108 | GCCCTCCCAGCCTATTAACCCCAAATTCCT | 3.91
109 | ATGACCTTTGACTGAGATGGGAGCAGTGCT | 2.23
110 | GACGGCGGATCCTCCCAGCCTGGAGGAGGG | -0.864
111 | TCAGTAAGGAGAGGGGGCGGGGAGAGGGAA | -1.14
112 | TGCCATTCTTCCAGTTGTGTGCACAAGAGG | 1.7
113 | AAAGCACTTTGCCCCCAAGAAAAGGTTCCT | 3.13
114 | AGATCCATTGCATGTGCATTTCACAATAGG | 1.22
115 | ACTGTTTGGCCTATGGGAAAACAGGCTCAG | -1.14
116 | TTTAACTCTTTATCTTTCTCCTACAGCCTG | -0.791
117 | GACTACAAATTCCTCAATCCAGTCATCTCA | -1.14
118 | ACCTTTGACCCTTTATAATCCCCTATGCTC | 4.17
119 | ACTTTTGGCCATCGCACGAGCAAGTTTATT | 0.189
120 | ACCCTGAATGTGTGCTGGCCTGGTTCCTTC | 0.887
121 | TTTGAAGCAAAGCCTTTGAGCAGATGGAAG | 0.0298
122 | AACATCTGTATTTAACTTTTGGGATCAGCA | 1.17
123 | CCTGTTCTTTTGAGCTGTGGTTAAGACTCA | 0.608
124 | TCCTAGGGAAGAAACATTCTGATCAAATAG | 0.81
125 | CTGCGTAACTTACAGTGCACTTTGACCGCT | 7.14

Row | Sequence | binding signal (log2 normalized intensity)
126 | CTCTGCAGAGGCTTCCTCTTTGGTGCAAAG | -0.855
127 | ATATTTGTGATTTGAAATTTGTCCTGGTCA | 2
128 | TATTGTGAGATTACGTAAGTGAAAGTACAC | 1.65
129 | CAAATGATGTCTCTCATTGGAATGAGCCTC | 1.19
130 | TGGTTTTTGTTGTTGAGCAAATCATAGTGT | 2.25
131 | TGGCAGTGAAGGAACTATTGGATTCCCCAA | 0.825
132 | TGGGCAGTGCAGTATGCGCTCTGGGAAACA | -0.737
133 | AACCCATGGGAAGCTTCACAAAGGGCTGAG | -1.18
134 | GGAGCAGCCTAGTAAAAGGTAGATACTATA | -1.18
135 | GGAAGAACTGGTTCTGTGGAATTTGTGCTT | 1.93
136 | GGCGCAATCTCAGCTCAATCTCTGTCGCCC | -1.12
137 | GCGCCACTGCGTCCAGCCACAATTAATGTA | -1.06
138 | TCAAATGCACCAAAAATATCTTTGTCTCAG | -0.76
139 | TCTTTAAGACAAGTGTCCCTCAAACTGAAG | 1.28
140 | GCTGAGTCCCTGCTTGATAAGACTGACAAC | -1.05
141 | GCCGCCACCCGGTTGGCGCCAATACCTGCC | -1.12
142 | AAACATGCGCATGTTCCCACGAAACCCTAA | 1.67
143 | TGCAAACTCCAGCATGAGGGGGTGGACTGA | 0.593
144 | TGGTAGCATGGCTCAGTCCAAGTCCAAAGG | 4.18
145 | CTTTGACCATCCACGGATGCATGATTGCTC | -1.11
